Where “and” joins values, the source holds several entries; their conditions need not be identical. Equal entries are not always repeated. Screen size: about 220,000 compounds; about 16,000 (7.3%) were called active. This list was built around the results that the source calls inconclusive (neither active nor inactive); the mix of calls is not that of the screen. The call rests on the fitted dose curve; in most records, active means well fitted inhibition curve with a large enough effect (not every such curve was filed as active); inconclusive means small, poorly fitted or top-dose-only effect, or another doubt; inactive means no such curve, though single readings can be large or run the other way. Potencies beside an inconclusive call are fits to weak or partial responses and may not hold up.
biological target: Aldehyde dehydrogenase 1A1 (Homo sapiens) (UniProt P00352); assay: qHTS Assay for Inhibitors of Aldehyde Dehydrogenase 1 (ALDH1A1); conditions: Purified ALDH1A1, NADH fluorescence, propionaldehyde substrate; series mostly up to 75.3 µM; activity, negative = inhibition: at the top concentration;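 on activity, negative = inhibition: plate controls were no enzyme wells and a reference inhibitor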
Potency means the concentration at half of the fitted maximal effect; tags describe the fitted curve by direction and shape.

Sequence of UniProt P00352 (P00352 whole entry, looked up): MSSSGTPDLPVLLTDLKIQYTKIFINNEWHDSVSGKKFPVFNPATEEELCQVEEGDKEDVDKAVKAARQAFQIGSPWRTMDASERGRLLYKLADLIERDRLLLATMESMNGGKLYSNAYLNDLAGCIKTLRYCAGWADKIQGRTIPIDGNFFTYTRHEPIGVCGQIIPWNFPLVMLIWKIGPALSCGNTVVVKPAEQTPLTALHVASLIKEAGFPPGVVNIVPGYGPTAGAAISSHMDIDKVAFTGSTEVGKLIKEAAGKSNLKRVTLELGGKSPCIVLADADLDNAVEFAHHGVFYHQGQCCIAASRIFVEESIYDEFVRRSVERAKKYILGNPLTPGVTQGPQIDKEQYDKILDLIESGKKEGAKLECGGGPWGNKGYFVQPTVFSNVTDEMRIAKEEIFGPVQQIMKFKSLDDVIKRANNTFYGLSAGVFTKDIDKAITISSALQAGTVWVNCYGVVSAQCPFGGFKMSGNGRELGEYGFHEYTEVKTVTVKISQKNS

SMILES	Potency	activity, negative = inhibition
CCOC(=O)NC(O)C(=O)c1ccc(F)cc1 (centres undefined)	active: 22.4 µM	
CC(C)N(C(=O)c1sc2cc([N+](=O)[O-])ccc2c1Cl)C(C)C	inconclusive: 39.8 µM [inhibitor, single point]	
N#Cc1nc(-c2ccco2)oc1NCCN1CCOCC1	inconclusive: 35.5 µM [inhibitor, single point]	
CCN(CC)S(=O)(=O)c1ccc(NC(=O)COC(=O)c2ccc(-n3nc(C)cc3C)cc2)cc1	inconclusive: 28.2 µM [inhibitor, partial curve]	
COc1cccc(C(NC(=O)c2ccccc2F)NC(=O)c2ccccc2F)c1	inconclusive: 39.8 µM [inhibitor, single point]	
CCN1C(=O)C(O)(CC(=O)c2ccccn2)c2ccccc21 (centres undefined)	inconclusive: 14.1 µM [inhibitor, partial curve]	
CCOC(=O)C1(CCOC)CCN(C(=O)c2ccccc2-c2cccc(C)c2)CC1	inconclusive: 39.8 µM [inhibitor, single point]	
Cc1nnc(C)c2c(C)n(Cc3ccc4c(c3)OCO4)c(C)c12		inactive: -14.4%
c1ccc(CSc2nnc(Cc3ccccc3)o2)cc1	inconclusive: 39.8 µM [inhibitor, single point]	
CCOC(=O)CNC(=O)c1ccc2[nH]c3c(c2c1)CCCC3		inactive: -7.43%
Cc1ccc(CN2CCS(=O)(=O)CC2)o1	inconclusive: 31.6 µM [inhibitor, single point]	
O=C(O)CSc1nc2ccccc2n1C1CCCCC1		inactive: -12.8%
N#Cc1ccc(S(=O)(=O)Nc2ccc3ccccc3n2)cc1		inactive: -4.67%
CNc1nc(Nc2ccc(Br)cc2)nc(N)c1[N+](=O)[O-]		inactive: 2.4%
CCC(C)NC(=O)CSc1nnc(-c2cc(-c3ccc(C)cc3)nc3ccccc23)n1N (centres undefined)	inconclusive: 37.7 µM [inhibitor, single point]	
COc1ccc2c(c1OC)CCC2=O	inconclusive: 39.8 µM [inhibitor, single point]	
O=C(O)/C(=C/c1ccco1)c1ccccc1		inactive: -0.469%
O=C(COC(=O)c1cccc(S(=O)(=O)N2CCc3ccccc32)c1)Nc1ccc(Cl)cn1		inactive: -9.88%
COc1ccc(NC(=O)c2ccc(-c3ccccc3)cc2)cc1S(=O)(=O)N1CCOCC1	inconclusive: 31.6 µM [inhibitor, single point]	
COc1ccccc1Nc1nc2cc(C)ccc2cc1C#N	inconclusive: 39.8 µM [inhibitor, single point]	
Cc1ccccc1-n1c(SCC(=O)c2cc(C)n(C)c2C)nnc1-c1ccncc1	inconclusive: 20 µM [inhibitor, partial curve]	
Cc1[nH]c2ccc(F)cc2c1CCN(Cc1ccncc1)C(=S)Nc1ccccc1		inactive: 18.6%
CCC(C)c1ccc(NC(=O)COc2c(F)c(F)c(C(F)(F)F)c(F)c2F)cc1 (centres undefined)	inconclusive: 28.2 µM [inhibitor, single point]	
O=C(/C=C1\C(=O)Nc2ccccc21)/C=C1\C(=O)Nc2ccccc21	inconclusive: 22.4 µM [inhibitor, partial curve]	
Nc1ccc(CC2SC(=O)NC2=O)cc1 (centres undefined)		inactive: -7.38%

SMILES	Potency	activity, negative = inhibition
CCSc1ncnc2c1sc1nc(-c3ccco3)c3c(c12)CC(C)(C)OC3	inconclusive: 35.5 µM [inhibitor, single point]	
O=C(Nc1nc(=O)c2ccccc2s1)c1ccccc1	inconclusive: 29.9 µM [inhibitor, single point]	
CCCCOc1ccc(/C=C/C(=O)OCC(=O)c2c(N)n(C)c(=O)n(C)c2=O)cc1OCC	inconclusive: 28.2 µM [inhibitor, partial curve]	
COc1ccc(Cl)cc1NC(=O)CN1c2ccccc2CC1C (centres undefined)	inconclusive: 31.6 µM [inhibitor, single point]	
CC(=O)c1c(C)nc(Nc2nc(C)c3cc(C)ccc3n2)nc1C	inconclusive: 31.6 µM [inhibitor, single point]	
Cc1cc(Nc2ccc(N3CCC(C)CC3)cc2)n2ncnc2n1	inconclusive: 39.8 µM [inhibitor, single point]	
COc1cc2[nH]c(=S)nc(NCCc3ccc(S(N)(=O)=O)cc3)c2cc1OC		inactive: 10.9%
O=C(/C=C/c1ccc([N+](=O)[O-])cc1)OCC(=O)N1c2ccccc2Sc2ccccc21		inactive: 2.3%
Cc1c(Cc2ccccc2)sc(NC(=O)c2ccco2)c1C(N)=O	inconclusive: 35.5 µM [inhibitor, single point]	
Cc1oc2nc(SCC(=O)N3CCCCC3)nc(N)c2c1C	inconclusive: 39.8 µM [inhibitor, single point]	
CC(C(=O)Nc1ccc(S(=O)(=O)N2CCOCC2)cc1)N1C(=O)C2CC=CCC2C1=O (centres undefined)	inconclusive: 39.8 µM [inhibitor, single point]	
CCOC(=O)C1=C(C)OC(N)=C(C#N)C1c1cc(F)ccc1F (centres undefined)		inactive: 8.47%
CCCc1nnc(SCC(=O)N2CCCC2)n1Cc1ccco1	inconclusive: 37.7 µM [inhibitor, single point]	
Cc1ccc(-c2cc(C(F)(F)F)c(C#N)c(SCCC#N)n2)o1	inconclusive: 3.16 µM [inhibitor, full curve]	
CCOC(=O)CSCC(=O)Nc1c(C(=O)C2CC2)oc2ccccc12		inactive: -3.08%
O=c1[nH]ncc2ccccc12	inconclusive: 39.8 µM [inhibitor, single point]	
O=C(CSc1nnc(CN2CCOCC2)n1-c1ccc(Cl)cc1)Nc1ccc2c(c1)OCO2		inactive: -7.7%
CCOC(=O)c1cc(-c2ccccc2)n(CCC(=O)N2CCN(c3ccccn3)CC2)c1C		inactive: -0.46%
CCOC(=O)C1C(=O)NCC1c1ccccc1 (centres undefined)		inactive: 6.09%
O=C(CCSc1nc(-c2ccco2)cc(C(F)(F)F)n1)NCC1CCCO1 (centres undefined)		inactive: -14.9%
CCN(CC)S(=O)(=O)c1ccc2oc(C(=O)NCCCN3CCOCC3)c(C)c2c1	inconclusive: 39.8 µM [inhibitor, single point]	
Cc1ccc(S(=O)(=O)c2nc(-c3ccco3)oc2NCC2CCCO2)cc1 (centres undefined)	active: 10 µM	
Cc1cc(N2CCCC(C(=O)Nc3cccc4ccccc34)C2)n2ncnc2n1 (centres undefined)		inactive: 5.89%
Nc1nc2c(c(=O)[nH]1)CN(CCCN1CCOCC1)CN2		inactive: 8.06% [at 13.5 µM]
Cc1cc(C)c(S(=O)(=O)NCC2CCC(C(=O)NCc3ccc4c(c3)OCO4)CC2)c(C)c1 (centres undefined)	active: 28.2 µM	

SMILES	Potency	activity, negative = inhibition
COC(=O)NC1(C(F)(F)F)C(=O)NC(C)=C1C(=O)OC (centres undefined)		inactive: 13.1%
Cc1ccc(NC(=O)c2cccc(OCc3c(C)noc3C)c2)cc1	inconclusive: 8.91 µM [inhibitor, partial curve]	
c1ccc(-c2csc3ncnc(N4CCOCC4)c23)cc1		inactive: -2%
COc1cccc(Nc2nc(N)nc(-c3oc4ccccc4c3C)n2)c1	inconclusive: 37.7 µM [inhibitor, single point]	
Oc1ccc(O)c(-c2cnns2)c1	inconclusive: 35.5 µM [inhibitor, single point]	
CCN(CC)CCCNC(=O)CN1C(=O)CSc2ccc(S(=O)(=O)N3CCOCC3)cc21		inactive: 10.2%
CCCOc1ccc(-c2nc(C#N)c(N3CCC(C(N)=O)CC3)o2)cc1	inconclusive: 28.2 µM [inhibitor, partial curve]	
CCC(C)n1c(SCC(=O)NCCc2ccc(S(N)(=O)=O)cc2)nc2ccsc2c1=O (centres undefined)	inconclusive: 39.8 µM [inhibitor, single point]	
COc1ccccc1NC(=O)CSc1nc2nc(C)cc(C)c2c(=O)[nH]1		inactive: -1.49%
CC(C)NC(=O)N1CC2(CCN(C(=O)c3ccco3)CC2)C1	inconclusive: 39.8 µM [inhibitor, single point]	
Cc1cc(NCCO)nc(-n2nc(C)cc2C)n1	inconclusive: 25.1 µM [inhibitor, partial curve]	
CC(C)NC(=O)NC(=O)COC(=O)c1ncc(Cl)c(Cl)c1Cl		inactive: -0.679%
CC(=O)N1CCc2ccc(NC(=O)c3c(-c4c(Cl)cccc4Cl)noc3C)cc21		inactive: 2.52%
CCCCC1=CC2=C(c3ccco3)C(=O)C(C)(OC(=O)c3ccc(OC)cc3)C(=O)C2=CN1CCCOC(C)C (centres undefined)	inconclusive: 6.31 µM [inhibitor, single point]	
CC(Oc1ccc(Cl)cc1Cl)C(=O)NCCC1=CCCCC1 (centres undefined)		inactive: -7.79%
O=C(Nc1ccc([N+](=O)[O-])cc1Cl)c1cc(Cl)ccc1O	inconclusive: 3.55 µM [inhibitor, partial curve] and inconclusive: 39.8 µM [inhibitor, single point] and inconclusive: 28.2 µM [inhibitor, single point]	
Cc1ccc(C(=O)Nc2cccnc2)cc1[N+](=O)[O-]		inactive: -8.05%
CC(NC(=O)CSc1nnc(-c2cc3cc(Cl)ccc3o2)n1C)c1ccccc1 (centres undefined)		inactive: 7.2%
C=CCSc1n[nH]c(-c2ccc(OC)cc2)n1	inconclusive: 39.8 µM [inhibitor, single point]	
Cc1cc(C)c(S(C)(=O)=O)c(Oc2cccc(C(F)(F)F)c2)n1	inconclusive: 39.8 µM [inhibitor, single point]	
COc1ccc(-c2nnc(-c3cc(OC)c(OC)c(OC)c3)o2)cc1OC	inconclusive: 25.1 µM [inhibitor, partial curve]	
O=C1CN(C(=O)c2ccc(Br)o2)C(c2ccccc2)c2cc(F)ccc2N1 (centres undefined)	inconclusive: 22.4 µM [inhibitor, single point]	
COC(=O)Nc1c(-c2ccccc2)nc2ccccn12	inconclusive: 35.5 µM [inhibitor, partial curve]	
CCCCC(=O)NCCc1cc2ccc(OC)cc2[nH]c1=O		inactive: -0.586%

Source: PubChem BioAssay AID1030 (National Center for Advancing Translational Sciences (NCATS), 2008)
